Patent US20030007968A1 (published 2003)

Tests used:
CD80Ig [1] = molecular target: T1, CD80Ig (UniProt P33681 35-242, limits assumed); assay: SPR (BIAcore), CD80Ig immobilized, purified monomeric analyte
T1 construct: Immobilized on the BIAcore chip by amine coupling; also called soluble CD80Ig
T1 sequence (looked up): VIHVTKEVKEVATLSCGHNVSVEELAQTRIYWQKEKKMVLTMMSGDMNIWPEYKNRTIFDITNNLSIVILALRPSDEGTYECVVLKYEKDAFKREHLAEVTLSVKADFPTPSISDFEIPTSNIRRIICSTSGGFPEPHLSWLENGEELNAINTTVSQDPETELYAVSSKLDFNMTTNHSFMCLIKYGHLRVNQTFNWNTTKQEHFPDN

CD86Ig [2] = molecular target: T2, CD86Ig (UniProt P42081 24-247, limits assumed); assay: SPR (BIAcore), CD86Ig immobilized, purified monomeric analyte
T2 construct: Immobilized on the BIAcore chip by amine coupling; also called soluble CD86Ig
T2 sequence (looked up): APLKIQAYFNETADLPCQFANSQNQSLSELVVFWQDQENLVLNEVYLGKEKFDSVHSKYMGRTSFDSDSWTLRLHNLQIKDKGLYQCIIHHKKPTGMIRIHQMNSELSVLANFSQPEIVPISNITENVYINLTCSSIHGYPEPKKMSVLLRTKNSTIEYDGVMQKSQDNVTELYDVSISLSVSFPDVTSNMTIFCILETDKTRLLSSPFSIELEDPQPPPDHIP

CD80Ig [3] = molecular target: T1, CD80Ig; assay: SPR (BIAcore), equilibrium, CD80Ig immobilized, purified monomeric analyte
CD86Ig [4] = molecular target: T2, CD86Ig; assay: SPR (BIAcore), equilibrium, CD86Ig immobilized, purified monomeric analyte
CD86Ig [5] = molecular target: T2, CD86Ig; assay: SPR screening of COS culture media over immobilized CD86Ig

B1: CTLA4XC120S (receptor)
chain: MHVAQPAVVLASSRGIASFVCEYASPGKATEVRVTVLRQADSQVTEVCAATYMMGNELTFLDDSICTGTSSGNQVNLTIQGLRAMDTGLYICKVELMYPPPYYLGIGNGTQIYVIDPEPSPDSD
notes: It is the CTLA4 extracellular domain (+1 to +124) with C120S, made from an oncostatin M-CTLA4 plasmid; also called single chain CTLA4XC120S; monomeric CTLA4 extracellular domain
koff (CD80Ig [1]): 0.23 s⁻¹
kon (CD80Ig [1]): 1.2e+06 M⁻¹ s⁻¹
koff (CD86Ig [2]): 0.84 s⁻¹
kon (CD86Ig [2]): 1.65e+06 M⁻¹ s⁻¹
Kd (CD80Ig [3]): 195 nM
Kd (CD86Ig [4]): 511 nM

B2: L104EA29LIg (Fc fusion)
chain: MHVAQPAVVLASSRGIASFVCEYASPGKLTEVRVTVLRQADSQVTEVCAATYMMGNELTFLDDSICTGTSSGNQVNLTIQGLRAMDTGLYICKVELMYPPPYYEGIGNGTQIYVIDPEPCPDSDQ[letters of human IgG1 Fc with changes not shown]
notes: Tested as unpurified COS cell culture medium
fold slower “off” rate than wild type CTLA4Ig (CD86Ig [5]): ~4 fold

B3: L104EA29TIg (Fc fusion)
chain: MHVAQPAVVLASSRGIASFVCEYASPGKTTEVRVTVLRQADSQVTEVCAATYMMGNELTFLDDSICTGTSSGNQVNLTIQGLRAMDTGLYICKVELMYPPPYYEGIGNGTQIYVIDPEPCPDSDQ[letters of human IgG1 Fc with changes not shown]
notes: as for B2
fold slower “off” rate than wild type CTLA4Ig (CD86Ig [5]): ~4 fold

B4: L104EA29WIg (Fc fusion)
chain: MHVAQPAVVLASSRGIASFVCEYASPGKWTEVRVTVLRQADSQVTEVCAATYMMGNELTFLDDSICTGTSSGNQVNLTIQGLRAMDTGLYICKVELMYPPPYYEGIGNGTQIYVIDPEPCPDSDQ[letters of human IgG1 Fc with changes not shown]
notes: as for B2
fold slower “off” rate than wild type CTLA4Ig (CD86Ig [5]): ~4 fold
